The other results are listed elsewhere or left out. At the low end of the ranking the order means little.

The test deals with GST-SBP-SLBP (stem-loop binding protein) (UniProt Q14493). Description: targeted RNA Bind-n-Seq.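 Also: DESeq read counts versus GST-SBP nonspecific binding control pulldown.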 To be noted: RBNS binding buffer: 25 mM Tris pH 7.5, 150 mM KCl, 3 mM MgCl2, 0.1% Tween, 0.5 mg/mL BSA, 1 mM DTT; 27 nM protein, 750 pM RNA pool; temperature not stated; high values mean tight binding.
As for “GGUCACGUCUCAAUCAACUCAUCGUCCAGGGAAAGCCCUGGUUAAUUCAACAGCUCGCAGUCAAG”, the binding signal (log2 fold change) was 0.179.
With “GGUCACGUCUCAAUCAACUCUAUUUCAGGAGUUUUCUCCUGUUUACUCAACAGCUCGCAGUCAAG”, the binding signal (log2 fold change) is -0.0454.
Regarding “GGUCACGUCUCAAUCAACUCAUCGGAGGGGGGGAAAACCCCUUUACCCUCAUCCUCAACAGCUCGCAGUCAAG”, the binding signal (log2 fold change) came out at 0.12.
Consider “GGUCACGUCUCAAUCAACUCAAUUUCAGGAGUUUUCUCCUGCUAUUUCAACAGCUCGCAGUCAAG”, for which the binding signal (log2 fold change) worked out at 0.0905.
For “GGUCACGUCUCAAUCAACUCAUUUUCCAGGGAAAGCCCUGGCAUACUCAACAGCUCGCAGUCAAG”, the binding signal (log2 fold change) is -0.0739.
As for “GGUCACGUCUCAAUCAACUCAACUUCCAGGGAAAACCCUGGCUAACUCAACAGCUCGCAGUCAAG”, the binding signal (log2 fold change) was found to be 0.131.
On to “GGUCACGUCUCAAUCAACUCAAAAGAGGGGGGGAAAACCCCUUUACCCUCCAAUUCAACAGCUCGCAGUCAAG”, for which the binding signal (log2 fold change) was -0.446.
Consider “GGUCACGUCUCAAUCAACUCAGUUCCAGGAGUUUUCUCCUGUAUUUUCAACAGCUCGCAGUCAAG”, for which the binding signal (log2 fold change) was -0.105.
On to “GGUCACGUCUCAAUCAACUCUUCUCCCAGGGAAACCCCUGGUAUAUUCAACAGCUCGCAGUCAAG”, for which the binding signal (log2 fold change) turned out to be 0.0902.
“GGUCACGUCUCAAUCAACUCAAUCGAGGGGGGGAAAACCCCUUUACCCUCAUCUUCAACAGCUCGCAGUCAAG”: the binding signal (log2 fold change) is -0.114.
Turning to “GGUCACGUCUCAAUCAACUCUACUCCCAGGGAAACCCCUGGUUAUCUCAACAGCUCGCAGUCAAG”, the binding signal (log2 fold change) is -0.0302.
With “GGUCACGUCUCAAUCAACUCUUCCUCCAGGGAAAACCCUGGUAUUUUCAACAGCUCGCAGUCAAG”, the binding signal (log2 fold change) was -0.257.
As to “GGUCACGUCUCAAUCAACUCUUCGUCCAGGGAAACCCCUGGCAUUUUCAACAGCUCGCAGUCAAG”, the binding signal (log2 fold change) was -0.146.
For “GGUCACGUCUCAAUCAACUCAUCUCCAGGAGUUUCCUCCUGUUAUCUCAACAGCUCGCAGUCAAG”, the binding signal (log2 fold change) is -0.168.
As to “GGUCACGUCUCAAUCAACUCUUUCUCAGGAGUUUACUCCUGUUUUCUCAACAGCUCGCAGUCAAG”, the binding signal (log2 fold change) was -0.0657.
As for “GGUCACGUCUCAAUCAACUCUAUUUCAGGAGUUUUCUCCUGCUUAUUCAACAGCUCGCAGUCAAG”, the binding signal (log2 fold change) is -0.195.
The result for “GGUCACGUCUCAAUCAACUCAUCUUCAGGAGUUUCCUCCUGCUAUCUCAACAGCUCGCAGUCAAG” reads 0.225.
With “GGUCACGUCUCAAUCAACUCUUUCCCCAGGGAAACCCCUGGUUUUCUCAACAGCUCGCAGUCAAG”, the binding signal (log2 fold change) was 0.0834.
With “GGUCACGUCUCAAUCAACUCGUUUUCAGGAGUUUUCUCCUGCUUUCUCAACAGCUCGCAGUCAAG”, the binding signal (log2 fold change) is 0.0452.
“GGUCACGUCUCAAUCAACUCCCAAGAGGGGGGGAAAACCCCUUUACCCUCAACAUCAACAGCUCGCAGUCAAG”: the binding signal (log2 fold change) was -0.154.
With “GGUCACGUCUCAAUCAACUCAUCCUCAGGAGUUUGCUCCUGUAUUUUCAACAGCUCGCAGUCAAG”, the binding signal (log2 fold change) is 0.0415.
“GGUCACGUCUCAAUCAACUCCAACGAGGGGGGGAAAACCCCUUUACCCUCACACUCAACAGCUCGCAGUCAAG”: the binding signal (log2 fold change) was -0.197.
Turning to “GGUCACGUCUCAAUCAACUCAACUUCAGGAGUUUGCUCCUGCUUAUUCAACAGCUCGCAGUCAAG”, the binding signal (log2 fold change) is -0.00125.
With “GGUCACGUCUCAAUCAACUCUUCGCCCAGGGAAAGCCCUGGUUAUUUCAACAGCUCGCAGUCAAG”, the binding signal (log2 fold change) was 0.464.
As for “GGUCACGUCUCAAUCAACUCUAUCUCCAGGGAAAGCCCUGGUAAAUUCAACAGCUCGCAGUCAAG”, the binding signal (log2 fold change) was -0.147.
“GGUCACGUCUCAAUCAACUCUUCCCCCAGGGAAAACCCUGGCAAUGUCAACAGCUCGCAGUCAAG”: the binding signal (log2 fold change) is -0.132.
For the sequence “GGUCACGUCUCAAUCAACUCCUAAGAGGGGGGGAAAACCCCUUUACCCUCCAAAUCAACAGCUCGCAGUCAAG”, the binding signal (log2 fold change) was -0.441.
The result for “GGUCACGUCUCAAUCAACUCAUCCUCCAGGGAAAGCCCUGGUUUACUCAACAGCUCGCAGUCAAG” reads 0.136.
“GGUCACGUCUCAAUCAACUCUUCCUCCAGGGAAAACCCUGGUUUUUUCAACAGCUCGCAGUCAAG”: the binding signal (log2 fold change) is -0.0774.
As for “GGUCACGUCUCAAUCAACUCUUUCUCCAGGGAAACCCCUGGCUAACUCAACAGCUCGCAGUCAAG”, the binding signal (log2 fold change) was 0.228.
“GGUCACGUCUCAAUCAACUCUCAAGAGGGGGGGAAAACCCCUUUACCCUCCACUUCAACAGCUCGCAGUCAAG”: the binding signal (log2 fold change) is 0.175.
Turning to “GGUCACGUCUCAAUCAACUCAUUCCCCAGGGAAAACCCUGGUUAUCUCAACAGCUCGCAGUCAAG”, the binding signal (log2 fold change) worked out at 0.152.
Turning to “GGUCACGUCUCAAUCAACUCUCCCGAGGGGGGGAAAACCCCUUUACCCUCACUAUCAACAGCUCGCAGUCAAG”, the binding signal (log2 fold change) came out at 0.31.
The same measure for “GGUCACGUCUCAAUCAACUCAUCCUCCAGGGAAAUCCCUGGUUUAUUCAACAGCUCGCAGUCAAG”: 0.118; for “GGUCACGUCUCAAUCAACUCCUUAGAGGGGGGGAAAACCCCUUUGCCCUCGUAUUCAACAGCUCGCAGUCAAG”: -0.227; for “GGUCACGUCUCAAUCAACUCAAUCCCAGGAGUUUCCUCCUGCUUAUUCAACAGCUCGCAGUCAAG”: 0.0271.
The same measure for “GGUCACGUCUCAAUCAACUCCUCCGAGGGGGGGAAAACCCCUUUACCCUCAUUCUCAACAGCUCGCAGUCAAG”: -0.0397; for “GGUCACGUCUCAAUCAACUCUAACGAGGGGGGGAAAACCCCUUUACCCUCACACUCAACAGCUCGCAGUCAAG”: 0.113.
As to “GGUCACGUCUCAAUCAACUCUAUCUCCAGGGAAACCCCUGGCAUUUUCAACAGCUCGCAGUCAAG”, the binding signal (log2 fold change) is -0.0319.
Take “GGUCACGUCUCAAUCAACUCUUUUUCCAGGGAAAGCCCUGGCUAUCUCAACAGCUCGCAGUCAAG”: the binding signal (log2 fold change) was 0.0415.
On to “GGUCACGUCUCAAUCAACUCUUCCCCAGGAGUUUUCUCCUGUUUACUCAACAGCUCGCAGUCAAG”, for which the binding signal (log2 fold change) worked out at 0.0444.
Turning to “GGUCACGUCUCAAUCAACUCAUUCUCCAGGGAAAGCCCUGGCAAAUUCAACAGCUCGCAGUCAAG”, the binding signal (log2 fold change) was -0.0502.
With “GGUCACGUCUCAAUCAACUCUCUAGAGGGGGGGAAAACCCCUUUGCCCUCGAUAUCAACAGCUCGCAGUCAAG”, the binding signal (log2 fold change) was -0.366.
The same measure for “GGUCACGUCUCAAUCAACUCAUUUUCCAGGGAAAGCCCUGGUAUUCUCAACAGCUCGCAGUCAAG”: 0.0667; for “GGUCACGUCUCAAUCAACUCUUUUCCAGGAGUUUACUCCUGUUAUCUCAACAGCUCGCAGUCAAG”: -0.0157.
The same measure for “GGUCACGUCUCAAUCAACUCAAUCGAGGGGGGGAAAACCCCUUUACCCUCACUAUCAACAGCUCGCAGUCAAG”: -0.0652; for “GGUCACGUCUCAAUCAACUCAUUUCCCAGGGAAAUCCCUGGCAAUUUCAACAGCUCGCAGUCAAG”: 0.128; for “GGUCACGUCUCAAUCAACUCCACGGAGGGGGGGAAAACCCCUUUACCCUCAUCAUCAACAGCUCGCAGUCAAG”: -0.216.
“GGUCACGUCUCAAUCAACUCUAUCCCAGGAGUUUACUCCUGCUUAUUCAACAGCUCGCAGUCAAG”: the binding signal (log2 fold change) worked out at 0.00902.
For the sequence “GGUCACGUCUCAAUCAACUCUAUUCCCAGGGAAAUCCCUGGUUAUCUCAACAGCUCGCAGUCAAG”, the binding signal (log2 fold change) is -0.162.
As to “GGUCACGUCUCAAUCAACUCAAAAGAGGGGGGGAAAACCCCUUUGCCCUCCAUAUCAACAGCUCGCAGUCAAG”, the binding signal (log2 fold change) is -0.456.
Turning to “GGUCACGUCUCAAUCAACUCUACUCCAGGAGUUUCCUCCUGUAUUUUCAACAGCUCGCAGUCAAG”, the binding signal (log2 fold change) is -0.0512.
Take “GGUCACGUCUCAAUCAACUCUAUAGAGGGGGGGAAAACCCCUUUACCCUCAACCUCAACAGCUCGCAGUCAAG”: the binding signal (log2 fold change) is -0.111.
In the case of “GGUCACGUCUCAAUCAACUCUUUUUCCAGGGAAAACCCUGGUAAUCUCAACAGCUCGCAGUCAAG”, the binding signal (log2 fold change) is -0.00515.
As for “GGUCACGUCUCAAUCAACUCUUCGUCAGGAGUUUCCUCCUGCUUUUUCAACAGCUCGCAGUCAAG”, the binding signal (log2 fold change) amounted to 0.0524.
In the case of “GGUCACGUCUCAAUCAACUCUACUUCCAGGGAAACCCCUGGCUAUUUCAACAGCUCGCAGUCAAG”, the binding signal (log2 fold change) is -0.0686.
As for “GGUCACGUCUCAAUCAACUCAAUCUCAGGAGUUUCCUCCUGUAUUCUCAACAGCUCGCAGUCAAG”, the binding signal (log2 fold change) was determined as 0.194.
Regarding “GGUCACGUCUCAAUCAACUCUUUCGCCAGGGAAAACCCUGGGUAUUUCAACAGCUCGCAGUCAAG”, the binding signal (log2 fold change) was -0.138.
Take “GGUCACGUCUCAAUCAACUCUUUUCCAGGAGUUUACUCCUGCAAAUUCAACAGCUCGCAGUCAAG”: the binding signal (log2 fold change) came out at 0.0235.
For the sequence “GGUCACGUCUCAAUCAACUCAAUUUCCAGGGAAACCCCUGGCAUAUUCAACAGCUCGCAGUCAAG”, the binding signal (log2 fold change) was found to be 0.067.
Regarding “GGUCACGUCUCAAUCAACUCAUUUCCCAGGGAAACCCCUGGCAAUUUCAACAGCUCGCAGUCAAG”, the binding signal (log2 fold change) was -0.12.
As for “GGUCACGUCUCAAUCAACUCAAUUCCCAGGGAAAACCCUGGUAUACUCAACAGCUCGCAGUCAAG”, the binding signal (log2 fold change) was -0.295.
Turning to “GGUCACGUCUCAAUCAACUCCUUCGAGGGGGGGAAAACCCCUUUACCCUCUCCAUCAACAGCUCGCAGUCAAG”, the binding signal (log2 fold change) is -0.463.
Regarding “GGUCACGUCUCAAUCAACUCAAGGUCAGGAGUUUUCUCCUGCAAAUUCAACAGCUCGCAGUCAAG”, the binding signal (log2 fold change) came to 0.245.
For the sequence “GGUCACGUCUCAAUCAACUCAAUCCCAGGAGUUUACUCCUGUUUACUCAACAGCUCGCAGUCAAG”, the binding signal (log2 fold change) stood at 0.0607.
As for “GGUCACGUCUCAAUCAACUCAUCCCCAGGAGUUUACUCCUGCUUUCUCAACAGCUCGCAGUCAAG”, the binding signal (log2 fold change) was 0.061.
For the sequence “GGUCACGUCUCAAUCAACUCAUUCUCAGGAGUUUACUCCUGUUAACUCAACAGCUCGCAGUCAAG”, the binding signal (log2 fold change) was 0.16.
With “GGUCACGUCUCAAUCAACUCAUUCCCAGGAGUUUUCUCCUGUAUACUCAACAGCUCGCAGUCAAG”, the binding signal (log2 fold change) was -0.188.
Consider “GGUCACGUCUCAAUCAACUCUCUAGAGGGGGGGAAAACCCCUUUGCCCUCACCAUCAACAGCUCGCAGUCAAG”, for which the binding signal (log2 fold change) is -0.583.
As for “GGUCACGUCUCAAUCAACUCUACUCCAGGAGUUUUCUCCUGUUUAUUCAACAGCUCGCAGUCAAG”, the binding signal (log2 fold change) is -0.0432.
With “GGUCACGUCUCAAUCAACUCUUUCCCCAGGGAAAUCCCUGGUAUACUCAACAGCUCGCAGUCAAG”, the binding signal (log2 fold change) came to 0.136.
The same measure for “GGUCACGUCUCAAUCAACUCUAUCCCCAGGGAAAUCCCUGGUUAACUCAACAGCUCGCAGUCAAG”: -0.0887; for “GGUCACGUCUCAAUCAACUCAUUUUCAGGAGUUUACUCCUGUUUACUCAACAGCUCGCAGUCAAG”: 0.166; for “GGUCACGUCUCAAUCAACUCAAUAGAGGGGGGGAAAACCCCUUUACCCUCAAAUUCAACAGCUCGCAGUCAAG”: -0.123.

Source of the values: paper PMC5892938.
